Reference: PubChem BioAssay AID1454 (National Center for Advancing Translational Sciences (NCATS), 2008)
Screen size: about 130,000 compounds; about 550 (0.42%) were called active. Not shown: some 4% with an inconclusive outcome. The call rests on the fitted dose curve; in most records, active means well fitted inhibition curve with a large enough effect; inconclusive means small, poorly fitted or top-dose-only effect, or effect the other way; inactive means flat fitted curve, though single readings scatter. The entries are a selection whose mix differs from that of the whole data set.

experiment: qHTS Assay for Inhibitors of the ERK Signaling Pathway using a Homogeneous Screening Assay; Stimulation with EGF; settings: HEK293-V1b, EGF-stimulated phospho-ERK AlphaScreen; activity change, negative = inhibition: at the top concentration; further: nearly all actives have a fitted effect of over 55% in size;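 on activity change, negative = inhibition: plate controls were stimulated vehicle wells for no effect and unstimulated vehicle basal for full effect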
How it was run: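 Cell line HEK293 (stable V1b), low serum overnight. Pretreatment: compound 30 min, 37C. EGF 25 nM, 5 min. Detection: SureFire AlphaScreen, 5 h RT. AC50 via standard Hill equation.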
Potency means the concentration at half of the fitted maximal effect.

Structure (SMILES) | Potency | activity change, negative = inhibition
O=C1c2ccccc2C(=O)C1c1ccccc1 | inactive | –
O=C(O)CCc1nc(-c2ccccc2)c(-c2ccccc2)o1 | inactive | –
CCOc1ccc2[nH]c3c(N4CCc5ccccc5C4)ncnc3c2c1 | active: 31.6 µM | –
CCCCCCCCCCCCCCCC(=O)O[C@H](CC(=O)O)C[N+](C)(C)C | – | inactive: 2.12%
O=C(NN1C(=O)C2C3c4ccccc4C(c4ccccc43)[C@@H]2C1=O)c1ccccc1 (some centres not stated) | – | inactive: 1.52%
Cc1ccc(N=CC2=C(O)CC(c3ccccc3Cl)CC2=O)cc1 (configuration not stated) | active: 20 µM | –
CCOC(=O)Nc1ccc2c(c1)N(C(=O)CCN1CCOCC1)c1ccccc1S2 | – | inactive: -8.6% [at 25.7 µM]
CN(C)c1ccc(N=Nc2ccccc2C(=O)OCC(=O)NCC2CCCCC2)cc1 | active: 12.6 µM | –
COc1ccc(-c2cc(C(F)F)n3ncc(C(=O)Nc4cc(C)on4)c3n2)cc1 | active: 28.2 µM | –
CC(C)[C@H](NC(=O)c1ccccc1)C(=O)OCc1nc2scc(-c3ccccc3)c2c(=O)[nH]1 | active: 35.5 µM | –
CC1=C(C)C(=O)C(CCCCC#CCCCC#CCO)=C(C)C1=O | – | inactive: 8.13%
COc1ccc([C@@H]2CNC(=O)C2)cc1OC1CCCC1 | inactive | –
Nc1ncnc2c1ncn2C1OC(CO)C(O)C1O (configuration not stated) | inactive | –
CC#C[C@@]1(O)CC[C@H]2[C@@H]3CCC4=CC(=O)CCC4=C3[C@H](c3ccc(N(C)C)cc3)C[C@]21C | – | inactive: 8.13% [at 25.7 µM]
COc1cc(OC)c2c(=O)c(OC)c(-c3ccc(OC)c(OC)c3)oc2c1 | – | inactive: 26.1%
Nc1nc(Cl)nc2c1ncn2[C@@H]1O[C@H](CO)[C@H](O)[C@H]1O | – | inactive: 16.2%
COC(=O)[C@@]1(Cc2ccc(F)cc2)[C@H]2c3cc(C(=O)N4CCCC4)n(CCc4ccc(O)c(O)c4)c3C[C@H]2CN1C(=O)c1ccccc1 | – | inactive: 1.89%
COC1C=CO[C@@]2(C)Oc3c(C)c(O)c4c(O)c(c5c(nc6cc(C)ccn65)c4c3C2=O)NC(=O)/C(C)=C\C=CC(C)C(O)[C@@H](C)C(O)C(C)[C@@H](OC(C)=O)C1C (some centres not stated) | – | inactive: 20.3%
Oc1ccc(Nc2ncnc3scc(-c4ccccc4)c23)cc1 | active: 22.4 µM | –

Structure (SMILES) | Potency | activity change, negative = inhibition
CCO[C@H]1OC(C(=O)O)=C[C@@H](C2CC2)[C@@H]1CCCO | – | inactive: -9.04% [at 57.5 µM]
CC1=C(/C=C/C(C)=C/C=C/C(C)=C/C(=O)Nc2ccc(O)cc2)C(C)(C)CCC1 | inactive | –
CSC(SC)=C(C#N)C(=O)c1ccccc1 | active: 25.1 µM | –
C(=C/c1ccccc1)/CN1CCN(C(c2ccccc2)c2ccccc2)CC1 | – | inactive: 19.1% [at 25.7 µM]
CN1CCc2cccc3c2C1Cc1ccc(O)c(O)c1-3 (configuration not stated) | – | inactive: 11.7%
CS(=O)(=O)Nc1ccc([N+](=O)[O-])cc1Oc1ccccc1 | inactive | –
CCCCCCCCCCCCC/C=C\[C@@H](O)[C@@H](N)CO | – | inactive: 0.759%
COC(=O)[C@@H]1C[C@@]2(O)[C@@H](O)[C@@H](O)[C@@H](O)C[C@H]2N1Cc1ccc(N2CCOCC2)cc1 | – | inactive: 1.75%
C=C1/C(=C\C=C2/CCC[C@]3(C)[C@@H]([C@H](C)CCCC(C)(C)O)CC[C@@H]23)C[C@@H](O)C[C@@H]1O | – | inactive: -7.36%
CC1OC(OCC2OC(Oc3c(-c4ccc(O)c(O)c4)oc4cc(O)cc(O)c4c3=O)C(O)C(O)C2O)[C@@H](O)C(O)C1O (some centres not stated) | – | inactive: 26.7%
CC[C@H](C)C(=O)O[C@H]1CCC=C2C=C[C@H](C)[C@H](CC[C@@H]3C[C@H](O)CC(=O)O3)[C@H]21 | – | inactive: -0.958%
CCOc1cc(CC(=O)N[C@@H](CC(C)C)c2ccccc2N2CCCCC2)ccc1C(=O)O | – | inactive: -11.4% [at 25.7 µM]
O=C(Oc1ccc(Nc2ncnc3ccccc23)cc1)c1cccnc1 | active: 28.2 µM | –
CC(C(=O)O)c1cccc(C(=O)c2ccccc2)c1 (configuration not stated) | inactive | –
CC(=O)OC1C[C@]2(C)[C@@H](CC(O)C3[C@]4(C)CCC(O)C(C)[C@@H]4CC[C@]32C)/C1=C(/CCC=C(C)C)C(=O)O (some centres not stated) | – | inactive: -0.444%
Cc1ccc(CN2CCN(/N=C\C(Br)=C\c3ccccc3)CC2)cc1 | – | inactive: 2.47%
Nc1c2c(nc3ccccc13)CCCC2 | inactive | –
C[c-]1[c-](C)[c-](C)[c-](C)[c-]1C.[Fe].c1cc2nccc(N3CCCC3)[c-]2c1 (configuration not stated) | – | inactive: -1.87% [at 57.5 µM]
CN1C(=O)S/C(=C\c2ccccc2OCc2ccc(C(=O)O)cc2)C1=O | – | inactive: -3.26%

Structure (SMILES) | Potency | activity change, negative = inhibition
CO[C@@H]1C=CO[C@]2(C)Oc3c(C)c(O)c4c(O)c(c(C=NN5CCN(C)CC5)c(O)c4c3C2=O)NC(=O)C(C)=CC=C[C@H](C)[C@H](O)[C@H](C)[C@H](O)[C@H](C)[C@H](OC(C)=O)[C@H]1C | – | inactive: 3.64% [at 25.7 µM]
O=c1c(O[C@@H]2O[C@H](CO)[C@@H](O)[C@H](O)[C@H]2O)c(-c2ccc(O)c(O)c2)oc2cc(O)cc(O)c12 | – | inactive: 0.726% [at 57.5 µM]
CCCCCC(O)c1cccc(OCc2ccc3ccccc3n2)c1 (configuration not stated) | – | inactive: 2.35%
O=C1C=C(Nc2ccccc2)C(=O)c2ccccc21 | active: 25.1 µM | –
O=C(Nc1ccc(CN2CCOCC2)cc1)c1ccc(-c2ccc(Cl)cc2Cl)o1 | active: 25.1 µM | –
Cc1c(N2C(=O)/C(=C/C3CC=CCC3)SC2=S)c(=O)n(-c2ccccc2)n1C (configuration not stated) | – | inactive: 1.12% [at 57.5 µM]
C=CC[n+]1ccc(/C=C2\C=Cc3cc(C)ccc3N2CC)c2ccccc21 | active: 14.1 µM | –
CNCCCC12CCC(c3ccccc31)c1ccccc12 | inactive | –
Cc1coc2c1C(=O)C(=O)c1c-2ccc2c1CCCC2(C)C | – | inactive: -22%
Cn1c(N)c(C(=O)COC(=O)c2cc(C3CC3)nc3ccccc23)c(=O)n(C)c1=O | – | inactive: 8.6%
COc1ccc(-c2nc(C#N)c(NCCc3ccccc3)o2)cc1 | active: 28.2 µM | –
CCCCC[C@H](O)/C=C/[C@H]1[C@H](O)CC(=O)[C@@H]1C/C=C\CCCC(=O)O | – | inactive: -25.7%
CCOc1ccc(N/C(C)=C/C(=O)c2ccc3c(c2)OCCO3)cc1 | – | inactive: 0.441% [at 57.5 µM]
CC1=C(C(=O)O)N2C(=O)C(NC(=O)C(N)c3ccccc3)C2SC1 (configuration not stated) | – | inactive: 22.3%
NC1CONC1=O (configuration not stated) | inactive | –
O=C(C1=C[C@@H](c2ccc(Br)cc2)C[C@@H](OCc2ccc(CO)cc2)O1)N1CCOCC1 | – | inactive: -11.1% [at 57.5 µM]
Cc1ncc([N+](=O)[O-])n1CC(C)O (configuration not stated) | inactive | –
CC(=O)O[C@H]1CC[C@H]2[C@@H]3CCc4cc(O)ccc4[C@H]3CC[C@]12C | – | inactive: -8.52% [at 57.5 µM]
O=C(O)c1ccc2cc(-c3ccc(O)c(C45CC6CC(CC(C6)C4)C5)c3)ccc2c1 | active: 25.1 µM | –
